Source: article PMC6919601, “Identification of Plasmodium dipeptidyl aminopeptidase allosteric inhibitors by high throughput screening” (PLoS ONE, 2019)
In all, about 110,000 compounds went through this assay and about 230 (0.21%) showed an effect of 50% or more. The list shows a part of the results.

Each molecule was assayed against DPAP1 (Plasmodium falciparum, UniProt Q8IIJ9) (assay: primary screen, percent inhibition; read by cleavage of a fluorogenic dipeptide substrate; higher = more effect of the substance).
Parameters: species or system P. falciparum D10 trophozoite lysates; single well
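Further: 30 min substrate incubation versus DMSO and 10 µM JCP410 controls.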

Chain of DPAP1 (Q8IIJ9 whole entry, looked up): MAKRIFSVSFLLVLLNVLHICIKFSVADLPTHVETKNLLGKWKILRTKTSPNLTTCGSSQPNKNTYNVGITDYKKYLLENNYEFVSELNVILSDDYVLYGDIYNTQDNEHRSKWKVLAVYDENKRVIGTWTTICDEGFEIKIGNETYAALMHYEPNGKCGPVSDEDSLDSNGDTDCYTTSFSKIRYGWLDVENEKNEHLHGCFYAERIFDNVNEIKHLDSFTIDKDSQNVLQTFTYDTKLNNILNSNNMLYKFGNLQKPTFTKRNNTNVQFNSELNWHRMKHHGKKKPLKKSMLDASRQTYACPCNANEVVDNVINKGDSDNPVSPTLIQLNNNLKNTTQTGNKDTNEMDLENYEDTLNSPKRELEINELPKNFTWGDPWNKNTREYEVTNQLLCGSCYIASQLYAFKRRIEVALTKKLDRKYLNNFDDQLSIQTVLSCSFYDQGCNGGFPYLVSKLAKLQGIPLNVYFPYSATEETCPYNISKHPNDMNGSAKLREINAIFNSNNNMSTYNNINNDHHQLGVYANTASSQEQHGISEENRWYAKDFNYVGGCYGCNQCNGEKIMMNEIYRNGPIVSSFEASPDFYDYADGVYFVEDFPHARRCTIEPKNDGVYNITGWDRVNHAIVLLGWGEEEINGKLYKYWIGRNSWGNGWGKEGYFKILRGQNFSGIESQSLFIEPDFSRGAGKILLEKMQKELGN

| Compound | % Inhibition @ 10 uM [%] |
| --- | --- |
| Cc1ccc(Oc2cc(-n3ncc(C#N)c3N)ncn2)cc1 | -4.49 |
| O=C(Nn1cnnc1)c1ccccc1 | 5.98 |
| Cc1ccc(C(=O)Nc2ccc(OCC(=O)O)cc2)cc1C | 18.3 |
| COc1cccc(NC(=O)c2ccc(Cl)c([N+](=O)[O-])c2)c1 | 3.54 |
| CCOc1ccccc1NC(=O)C1CCCC1 | 2.27 |
| CC(C)CN(CC(C)C)C(=O)Nc1ccccc1C(F)(F)F | -5.5 |
| N#C/C(=C\c1ccco1)C(=O)NCC1CCCO1 (centres unmarked) | 25.9 |
| COc1ccc(-c2ccc(C=C3C(=O)N(C)C(=O)N(C)C3=O)o2)cc1Cl | 0.0719 |
| COc1ccc(C(O)Cc2nccn2C)cc1 (centres unmarked) | 1.89 |
| CCOc1ccc(/C=C2/SC(=O)N(CC(=O)N3CCCCC3)C2=O)c(OCC)c1 | -9.24 |
| COc1ccc(C2(CNC(=O)c3ccco3)CCOCC2)cc1 | -1.93 |
| CNC(=O)c1nnc(-c2ccccc2)o1 | 0.974 |
| COc1ccc(N2CCN(C3CCN(C(C)=O)CC3)CC2)cc1 | -0.0648 |
| COc1ccc(NC2=C(Cl)C(=O)N(c3ccccc3)C2=O)c(OC)c1 | -1.84 |
| COc1ccc(Cn2c(=O)c3cccnc3n(CC(=O)c3ccc(Br)cc3)c2=O)cc1 | -3.44 |
| Brc1cccc(C2N3CCCN23)c1 (centres unmarked) | 0.66 |
| Cc1ccc(-c2nc(CS(=O)(=O)CC(=O)NCCCN(C)Cc3ccccc3)c(C)o2)cc1 | -1.89 |
| CCSc1nc2c(c(=O)n1C1CCCCC1)C1(CCCC1)Cc1ccccc1-2 | 1.27 |
| CC(C)Oc1ccc(C(=O)N(CCCN(C)C)c2nc3c(F)cccc3s2)cc1 | 1.25 |
| Cc1ccc(C(C)C)c(OC(C)C(=O)N(Cc2ccco2)C2CCS(=O)(=O)C2)c1 (centres unmarked) | -1.11 |
| O=C(Nc1cccc([N+](=O)[O-])c1)C1CC1c1ccccc1 (centres unmarked) | 3.16 |
| CC1CCc2[nH]c3ccccc3c2C1 (centres unmarked) | -0.68 |
| N#CC1=C(N)Oc2nc(O)nc(O)c2C12C(=O)Nc1ccccc12 (centres unmarked) | -0.0217 |
| COc1cccc(C(=O)N2CCN(Cc3ccccc3Cl)CC2)c1 | -0.0938 |
| COP(=O)(OC)C(Nc1cccc(C(F)(F)F)c1)c1cccc(C)c1 (centres unmarked) | -3.62 |
| CCOC(=O)N1CCN(C(=O)CCc2c(C)nc3nc(C)nn3c2C)CC1 | -0.465 |

| Compound | % Inhibition @ 10 uM [%] |
| --- | --- |
| O=S(=O)(Nc1ccc(Nc2ccccc2)cc1)c1ccc(F)cc1 | 0.316 |
| O=c1cccc2n1C[C@H]1C[C@@H]2CN(Cc2ccco2)C1 | -3.63 |
| Cc1cccc(NS(=O)(=O)c2c(C)cc(C)cc2C)c1 | 1.83 |
| COc1ccc(C(=O)N2CCN(c3ccc(C)c(C)c3)CC2)cc1OC | -3.78 |
| Cc1cc(=O)n2nc(N3CCCC(C(=O)NCCCN4CCc5ccccc5C4)C3)sc2n1 (centres unmarked) | -2 |
| O=C(NCCc1ccc(Cl)cc1)c1ccc(CNc2c(N3CCOCC3)c(=O)c2=O)cc1 | 3.07 |
| CC(Cc1ccccc1)/N=C/C1=C(O)CNC1=O (centres unmarked) | 1.96 |
| Cc1nc2c(O)oc3ccccc3c-2n1 | 2.05 |
| O=C1N/C(=C/c2ccc(-c3ccc(F)cc3)o2)C(=O)N1Cc1ccccc1 | -5.14 |
| CC1CC(=O)C2=C(C1)OC(N)=C(C#N)C2c1ccc(Cl)c(Cl)c1 (centres unmarked) | 0.317 |
| CC(CCN1CCN(c2ccccc2Cl)CC1)c1ccccc1 (centres unmarked) | -9.55 |
| COc1cccc(/C(O)=C/c2nc3ccc(C(=O)N4CCN(c5ccccn5)CC4)cc3nc2O)c1 | -4.66 |
| O=C(COc1ccc(Cl)cc1Cl)Nc1ccc(F)cc1F | -3.77 |
| CCC(C)NC(=O)Cn1ncc2c(C)n(Cc3cccc(Cl)c3)c(C)c2c1=O (centres unmarked) | -2.17 |
| CCCCOc1ccc(C(C)(N)CC(=O)O)cc1 (centres unmarked) | 2.86 |
| O=C(NC1CCCCC1NC(=O)C1CC1)C1CC1 (centres unmarked) | -1.6 |
| CCOC(=O)c1sc(C)c2c(=O)n(Cc3ccccc3)c(C)nc12 | 1.37 |
| CCc1cc(CC)c(/C=C(\C#N)C(N)=O)c(CC)c1 | -2.51 |
| CC(Oc1c(F)c(F)cc(F)c1F)C(=O)NCc1ccc(-n2cccc2)cc1 (centres unmarked) | 4.61 |
| O=C(O)c1ccc(N2C(=O)C3C4CCC(C4)C3C2=O)cc1 (centres unmarked) | -3.5 |
| O=C1c2ccccc2C(=O)C1(NCc1ccc2c(c1)OCO2)c1ccccc1 | -6.73 |
| Nc1c(S(=O)(=O)c2ccccc2)c2nc3ccccc3nc2n1CCCO | 0.989 |
| Cc1cc(-c2ccccc2)nc(N2CCCC(C(=O)O)C2)n1 (centres unmarked) | 0.401 |
| COc1ccc(N(C(C)C(=O)N(C)C)S(C)(=O)=O)cc1 (centres unmarked) | -17.1 |
| COC(=O)c1c(SC)nc2ccccc2c1OCc1ccccc1 | -7.91 |
| COc1ccc2nc(NC(=O)CSC3=NCCS3)sc2c1 | -2.54 |

| Compound | % Inhibition @ 10 uM [%] |
| --- | --- |
| COc1ccccc1[C@@H](C)C[C@H](NC(=O)c1ccc(-c2ccccc2Cl)nc1)C(=O)NCC#N | -8.36 |
| Cc1cccc(NC(=O)c2ccc(C(C)(C)C)cc2)n1 | -5.01 |
| N=C(Nc1ccc(Br)cc1)c1ccccc1 | 6.18 |
| O=C(NCC1(c2ccccc2)CCOCC1)c1ccccc1Cl | 1.37 |
| CCCOc1ccc(C2CC(=O)NC3=C2C(=O)CC(C)(C)C3)cc1OC (centres unmarked) | 10.4 |
| CCOC(=O)c1cc(C)n(-c2ccc(C(=O)Nc3nc4ccc(OCC)cc4s3)cc2)c1C | 0.693 |
| COc1ccccc1/C=C/c1nc(-c2ccc(OC)c(OC)c2)no1 | -3.33 |
| O=C1C2C3C=CC(C3)C2C(=O)N1Cc1ccccc1 (centres unmarked) | -0.807 |
| CC1CN(C(=O)C2(C)CCCCC2)c2ccccc21 (centres unmarked) | -4.18 |
| Cc1cccc(C2=N/C(=C\c3ccc(C(C)C)cc3)C(=O)O2)c1 | -2.6 |
| COc1ccc(C2C(C(=O)Nc3nc4ccccc4s3)c3ccccc3C(=O)N2C)cc1 (centres unmarked) | 0.457 |
| O=C(/C=C/c1ccccc1)Nc1cc(C(=O)O)cc(C(=O)O)c1 | -3.52 |
| C=CCNc1ncnc2c1cnn2C | -3.02 |
| CC1CC(=O)C2=C(C1)OC(N)=C(C#N)C2c1ccccc1F (centres unmarked) | -5.57 |
| CN(C)CCN(C(=O)Cc1ccccc1)c1nc2cc3c(cc2s1)OCO3 | -3.88 |
| CCOC(=O)N1CCC(NS(=O)(=O)c2ccc3oc(=O)c4ncn(CC)c4c3c2)CC1 | 1.49 |
| CN1CCC(N(C)C/C(Br)=C/c2ccccc2)CC1 | -5.26 |
| O=c1c(S(=O)(=O)c2ccc(Cl)cc2)c(O)cc(-c2ccccc2)n1-c1ccccc1 | -6.58 |
| Cn1c(=O)c2c(nc(CN3CCN(C(=O)c4ccco4)CC3)n2Cc2ccccc2Cl)n(C)c1=O | -0.499 |
| CCOc1c(Br)cc(CNCCCSc2nnnn2C)cc1OC | -2.88 |
| CCOC(=O)N1CCC2(CC1)OC(=O)C(C)=C2C(=O)NCCCN1CCCCC1C (centres unmarked) | -3.56 |
| O=C(Nc1ccc(CN2CCOCC2)cc1)c1sc2ccccc2c1Cl | -8.15 |
| Cc1n[nH]c(C)c1CCCOc1ccc(Br)cc1 | -3 |
| Cc1cc(OC(C)C(=O)N(Cc2cccc(F)c2)C2CCS(=O)(=O)C2)ccc1Cl (centres unmarked) | -1.35 |
| CC(C(=O)NCc1cccc(Cl)c1)n1c2ccccc2c2cnnc(O)c21 (centres unmarked) | -3.79 |
| COC(=O)N1CC(=O)N(OCc2ccccc2)C1c1ccc(Cl)cc1Cl (centres unmarked) | 0.726 |

| Compound | % Inhibition @ 10 uM [%] |
| --- | --- |
| O=c1oc(-c2ccccc2Cl)nc2sc3c(c12)CCCC3 | -1.5 |
| Cc1ccc(/C=C(\NC(=O)c2ccccc2)C(=O)Nc2ccc3c(c2)OCO3)o1 | 2.46 |
| O=C(Cn1c(-c2ccccn2)nc2ccccc21)NCc1ccccc1 | -3.5 |
| CC(C)CNC(=O)c1ccc(Br)o1 | -1.29 |
| Cc1oc(-c2ccccc2F)nc1CS(=O)(=O)CC(=O)NCCCN1CCN(C)CC1 | 1.55 |
| O=[N+]([O-])c1cc2c3nnc(O)c-3cn(-c3ccc(F)cc3)c2cc1Cl | 1.54 |
| O=C(Cn1ncc2c(Cl)cccc21)NCCCN1CCCC1 | 0.596 |
| CCn1cc(C(=O)NCC2COc3ccccc3O2)c2cc(OC)c(OC)cc2c1=O (centres unmarked) | -1.73 |
| CN1C(=O)c2ccc(NC(=O)c3ccccc3Br)cc2C1=O | 1.89 |
| Cc1cc(N2C(=O)C(O)=C(C(=O)c3cccs3)C2c2ccc(C(C)(C)C)cc2)no1 (centres unmarked) | 0.206 |
| O=C(O)CCc1ccc(-c2ccccc2)n1CCc1ccccc1 | 2.32 |
| CC(C)(C)c1ccc2c(c1)C(=O)N(c1ccccc1C(=O)O)C2=O | -1.02 |
| OC(CCN1CCOCC1)(c1ccc(Cl)cc1)C1CCCCC1 (centres unmarked) | 1.12 |
| O=C1NC(c2ccncc2)C(C(=O)c2ccccc2)C(O)(C(F)(F)F)N1 (centres unmarked) | 2.64 |
| O=C(Nc1ccc(Cl)cc1)c1ccc2c(c1)OCO2 | 9.6 |
| O=C(O)c1cc2n(n1)C(C(F)(F)F)CC(c1ccc(Cl)cc1)N2 (centres unmarked) | -2.37 |
| Cc1ccc(CNC(=O)Nc2nnc(N(C)C3CCCCC3)s2)cc1 | -4.68 |
| CC(C)C[C@H]1CCC[C@H](CC(C)C)N1CCO | 3.65 |
| O=C(CN1C(=O)S/C(=C\c2ccc(-c3ccc(F)cc3)o2)C1=O)N1CCOCC1 | 4.53 |
| CCCOc1ccc(C(=O)C2=C(O)C(=O)N(CCN(C)C)C2c2ccc(F)cc2)c(C)c1 (centres unmarked) | -2.15 |
| Clc1ccc(C2=CC(c3cccs3)n3nnnc3N2)cc1 (centres unmarked) | -2.75 |
| N=C(NOC(=O)C12CC3CC(CC(C3)C1)C2)c1ccc(Cl)cc1 | -0.597 |
| Cn1c(=O)c2c(nc(SCC(=O)NC(C(=O)O)(c3ccccc3)c3ccccc3)n2C)n(C)c1=O | -0.0735 |
